Test results published in the RNAGym collection of RNA variant scans (doi:10.1093/nar/gkz1192).
The source gives no read counts; variants with many changes may rest on few reads.

B1: CPEB3 Ribozyme (parent)
chain: UAACAGGGGGCCACAGCAGAAGCGUUCACGUCGCAGCCCCUGUCAGAUUCUGGUGAAUCUGCGAAUUCUGCUGUAUAUCUC

Variants of: B1
Assay: self-cleavage, relative activity (ratio to wild type); higher = more cleavage; in vitro, sequencing
Procedure, shortened: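 Relative activity was defined as the cleaved/total read fraction for a variant divided by the same fraction for the unmutated ribozyme. CPEB3 self-cleaving ribozyme libraries were made by rounds of error-prone PCR, barcoded, and transcribed in vitro with T7 RNA polymerase for 5 hours at 37°C, and cleavage ran through transcription plus a 15 min DNase I step before EDTA. Illumina sequencing of template-switched reverse transcripts gave the reads, and DNA sequencing mapped the barcodes. Averages come from three batches, using variants with at least 5 reads.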

Variant | self-cleavage
UAACAGGGGGCCACAGCAGAAGCGUUCAUGUCGCAGCCCCUUUCAGAUUCUGGUGAAUCUGCGAAUUCUGCCGUAUAUCUC | 0.17
UAACAGGGGGCCACAGCAGAAGCGUUCAUGUCGCAGCCCAUGUCAGAUUCUGGUGAAUCAGCGAGUUCUGCUGUAUAUCAC | 0.08
UAACAGGGGGCCACAGCAGAAGCGUUCAUGUCGCAGCCCCUGUCAGAUUCUGGUGCAUCUGCGGAUUCUGCUGUACAUCUC | 0.1
UAACAGGGGGCCACAGCAGAAGCGUUCAUGUUGCAGCCCCUGACAGAUUCUGGUGAAUCUGCGAAUUCUGCUGUAUAUCUC | 0.07
UAACAGGGGGCCACAGCAGAAGCGUUCAUGUCGCAGCCCCUGUCAGAUUCUGGUGAGUCUGCGAAUUCCGCUGUAUAUCUC | 0.19
UAACAGGGGGCCACAGCAGAAGCGUUCAUGUCGCAGCCCCUGUCAGAUUCUGGUGAAUCUGCGGAUUCUGCAGUAUAUCUC | 0.26
UAACAGGGGGCCACAGCAGAAGCGUUCAUGUCGCAGCCACUGUCACAUUCUGGUGAAUCUGCGAAUUCUGCUGUAUGUCUC | 0.19
UAACAGGGGGCCACAGCAGAAGCGUUCAUGACGCAGCCCCAGUCAGAUUCUGGUGAAUCUGCGAAUUCUGCUGUAUAUCUC | 0.15
UAACAGGGGGCCACAGCAGAAGCGUUCAUGUCGCAGCCCCUGUCAGAUUCUGGUGAAUCUGCGAUUUCUGCCGUAUAUCUC | 0.17
UAACAGGGGGCCACAGCAGAAGCGUUCAUGUCGCAGCCCCUGUCAGAUUCUGGUGAAUCUGCGUUUCCUGCUGGAUAUCUC | 0.15
UAACAGGGGGCCACAGCAGAAGCGUUCAUGUCGCAGCCCCUGUCAGAUUCUGGUGAGUCUGCGAAUUUUGCUGUAUAUCUC | 0.2
UAACAGGGGGCCACAGCAGAAGCGUUCAUGUCGCAGCCCCUGUCAGAUUCUGGUGAAUCUGCGAAUUCUGCUUUAUAUCCC | 0.95
UAACAGGGGGCCACAGCAGAAGCGUUCAUGACGCAGCCCCAGUCAGAUUCUGGUGGAUCUGCGAAUUCUGCUGUAUAUCUC | 0.1
UAACAGGGGGCCACAGCAGAAGCGUUCAUGUCGCAGCCCCUGUCAGAUUCUGGUGAAUCUGUGAAUUCAGCUGUAUAUCCC | 0.11
UAACAGGGGGCCACAGCAGAAGCGUUCAUGUCGCAGCCCCUGUCAGAUUCUGGUGGAUCUGCGAAUUCUGCCGUAUAUCUC | 0.66
UAACAGGGGGCCACAGCAGAAGCGUUCAUGUCUCGGCCCCUGACAGGUUCUGGUGAAUCUGCGAAUUCUGCUGUAUAUCCC | 0.1
UAACAGGGGGCCACAGCAGAAGCGUUCAUGUCGCAGCCCCUGUCAGAUUUUGAUGAAUCUGCGAUUUCUGCUGUAUAUCUC | 0.12

Variant | self-cleavage
UAACAGGGGGCCACAGCAGAAGCGUUCAUGUCGCAGCCCCUGUCAAAUUCUGGUGAAUCUGCGAAUCCUGCUGUAUAUCUC | 0.14
UAACAGGGGGCCACAGCAGAAGCGUUCAUGUCGCAGCCUCUGUCAGAUUCUGGUGAAUCUGCGAAUUCUGCUGUAUGUCUC | 0.17
UAACAGGGGGCCACAGCAGAAGCGUUCAUGUCGCAGCCCCUGUCAGAUUCUGGUUAAUCUGCGGAUUCUGCUGUAGAUCUC | 0.13
UAACAGGGGGCCACAGCAGAAGCGUUCAUGUCGCAGCCCCUGUCAGAUUCUGGUGAAUCUGCGGAUUCUGCUGGAUAUCUC | 0.68
UAACAGGGGGCCACAGCAGAAGCGUUCAUGUCGCAGCCCCUGUCAGAUUCUGGUGAGUCAGCGAAUUCUGCUGUAUAUCUC | 0.17
UAACAGGGGGCCACAGCAGAAGCGUUCAUGUCGCAGCCCCUGUCAGAUUCUGGUGGAUCUGCGAAUUCGGCUGUAUAUCUC | 0.22
UAACAGGGGGCCACAGCAGAAGCGUUCAUGUCACAGCCCCUGUCAGAUACAGGUGAAUCUGCGGAUUCUGCUGUAUAUCUC | 0.24
UAACAGGGGGCCACAGCAGAAGCGUUCAUGUCGCAGCCCCUGUCAGAUUCUGGUGAGUCUGCGAAUUCUGCGGUAUAUCUC | 0.38
UAACAGGGGGCCACAGCAGAAGCGUUCAUGUCGCAGCCCCUGUCAGUUUCUGGUGAAUCUGCGGAUUCUGCUGUAUAUCUC | 0.39
UAACAGGGGGCCACAGCAGAAGCGUUCAUGUCGCAGCCCCUGUCAGUUUCUGGUGAAUCUGCGAAUUCUGCUGUAUACCUC | 0.36
UAACAGGGGGCCACAGCAGAAGCGUUCAUGUCGCAGCCCCUGUCAGAUUCUGGUGAAUAUGCGAAUUCCGCUGUAUAUCUC | 0.07
UAACAGGGGGCCACAGCAGAAGCGUUCAUGUCGCAGCCCCUGUCAGUUUCUGGAGAAUCUACGAAUUCUGCUGAAUAUCUC | 0.1
UAACAGGGGGCCACAGCAGAAGCGUUCAUGUCGCAGCCCCUGUCAGAUUCUGGUGUAUCUACGAAUUCUGCUGUAUAUCUC | 0.11
UAACAGGGGGCCACAGCAGAAGCGUUCAUGACGCAGCCCCAGUCAGAUUCGGGUGAAUCUGCGAAUUCUGCUGUAUUUCUC | 0.2
UAACAGGGGGCCACAGCAGAAGCGUUCAUGUCGCAGCCCCUGUCAGAUUCUGGUGAGUCUGCGAAUUCUGCUGUUUAUCUC | 0.45
UAACAGGGGGCCACAGCAGAAGCGUUCAUGUCACAGCUCCUGUCAGAUUCUGGUGAAUCAGCGAAUUCUGCUGUAUAUCUC | 0.06
UAACAGGGGGCCACAGCAGAAGCGUUCAUGUCUCUGCCCCUGUCAGAUUCUGGUGAAUCUGCGAAUUCUGCUGUAUAUCUC | 0.08
